Experimental data reported in paper PMC4336329 (PLoS ONE, 2015).
Screen size: about 310,000 compounds; about 14,000 (4.5%) showed an effect of 50% or more. Effects have a minus sign here. Some of the results follow.

molecular target: human ether-à-go-go-related gene (hERG) potassium channel (human, UniProt Q12809); experiment: primary screen, population patch clamp on CHO cells stably expressing hERG
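Also: peak tail current of the secondary pulse compared with the same well before compound.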

human ether-à-go-go-related gene (hERG) potassium channel, sequence (Q12809 whole entry, looked up): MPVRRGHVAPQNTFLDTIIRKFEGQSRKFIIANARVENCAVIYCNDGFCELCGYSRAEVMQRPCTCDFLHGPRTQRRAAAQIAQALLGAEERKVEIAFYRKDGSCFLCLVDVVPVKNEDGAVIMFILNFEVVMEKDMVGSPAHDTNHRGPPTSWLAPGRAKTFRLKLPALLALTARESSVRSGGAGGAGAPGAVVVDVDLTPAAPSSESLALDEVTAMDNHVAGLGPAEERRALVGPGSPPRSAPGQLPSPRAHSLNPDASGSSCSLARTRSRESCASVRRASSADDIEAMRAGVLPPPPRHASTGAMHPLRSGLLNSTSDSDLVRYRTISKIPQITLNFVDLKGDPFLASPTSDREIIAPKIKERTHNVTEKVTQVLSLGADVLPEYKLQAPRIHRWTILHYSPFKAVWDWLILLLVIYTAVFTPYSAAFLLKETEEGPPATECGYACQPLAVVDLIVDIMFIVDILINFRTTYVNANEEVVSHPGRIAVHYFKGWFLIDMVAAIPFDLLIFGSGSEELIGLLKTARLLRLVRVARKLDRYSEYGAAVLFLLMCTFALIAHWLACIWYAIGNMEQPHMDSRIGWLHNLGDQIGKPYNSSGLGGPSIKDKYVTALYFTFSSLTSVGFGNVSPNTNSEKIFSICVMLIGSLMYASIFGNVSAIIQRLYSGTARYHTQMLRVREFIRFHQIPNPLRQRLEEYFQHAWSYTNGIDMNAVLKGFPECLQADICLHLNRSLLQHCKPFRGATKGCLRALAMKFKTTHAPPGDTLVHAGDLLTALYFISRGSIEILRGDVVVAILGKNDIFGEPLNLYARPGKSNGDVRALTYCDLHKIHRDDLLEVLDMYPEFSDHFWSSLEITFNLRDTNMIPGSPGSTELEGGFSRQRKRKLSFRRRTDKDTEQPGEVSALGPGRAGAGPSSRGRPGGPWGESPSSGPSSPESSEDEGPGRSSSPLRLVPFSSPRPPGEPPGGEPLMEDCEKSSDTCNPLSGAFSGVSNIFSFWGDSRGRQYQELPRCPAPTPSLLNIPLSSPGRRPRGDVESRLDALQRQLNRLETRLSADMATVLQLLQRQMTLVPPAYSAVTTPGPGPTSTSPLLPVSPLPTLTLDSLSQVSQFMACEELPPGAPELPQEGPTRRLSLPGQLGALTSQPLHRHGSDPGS

First: COC(=O)Cc1c(C)c2ccc(OCC(=O)c3ccc(OC)c(OC)c3)cc2oc1=O
Second: COc1ccc(C(=O)COC(=O)/C=C/c2ccco2)cc1F
The “hERG current change (%, negative = inhibition) at 10uM” value of the first is higher: 16.5% for the first, -22.6% for the second.

Compared with O=c1[nH]c(=O)n(CCc2ccccc2)c(O)c1C=NC1CC1, O=C1C2C3CCC(C3)C2C(=O)N1Cc1ccccc1 (stereo not shown) is lower in “hERG current change (%, negative = inhibition) at 10uM” value: 3.17% for the first, -1.12% for the second.

Compared with CC1CCCN(CCCNC(=O)CN2C(=O)COc3ccccc32)C1 (stereo not shown), COCC(C)NC(=O)CSc1nc2cc(S(=O)(=O)N3CCCCC3)ccc2o1 (stereo not shown) is lower in “hERG current change (%, negative = inhibition) at 10uM” value: -4.59% for the first, -4.68% for the second.

Going from COc1cccc(NC(=O)CN(C)C(=O)c2cc(C)oc2C)c1 to O=C(COC(=O)c1ccc2c(c1)OCO2)Nc1cccc(F)c1, the “hERG current change (%, negative = inhibition) at 10uM” value rises from 6.56% to 12.7%.

Compared with COC(=O)[C@@]12CCCN1[C@H](c1ccc(-c3cccc(Cl)c3)cc1)[C@H]1C(=O)N(C)C(=O)[C@H]12.O=C(O)C(F)(F)F, Cc1c(NC(=O)c2nn3c(C(F)(F)F)cc(-c4ccccc4)nc3c2Cl)c(=O)n(-c2ccccc2)n1C is higher in “hERG current change (%, negative = inhibition) at 10uM” value: -29.6% for the first, -1.17% for the second.

Compared with COc1ccc(C(=O)COC(=O)CN2C(=O)C3C4C=CC(C4)C3C2=O)cc1 (stereo not shown), CCOC(=O)C1CCN(S(=O)(=O)c2ccc(C(C)=O)cc2)CC1 is lower in “hERG current change (%, negative = inhibition) at 10uM” value: -2.83% for the first, -23.9% for the second.

First: CC(=O)NC12CC3CC(C1)CC(C(=O)Nc1nccs1)(C3)C2
Second: O=C(N/N=C/c1ccccc1)NC1CCCCC1
The “hERG current change (%, negative = inhibition) at 10uM” value of the first is higher: 6.58% for the first, 1.81% for the second.

Compared with O=S(=O)(NC1CCCCC1)c1cccc(-c2nnc(-c3ccccc3)o2)c1, O=C(CCS(=O)(=O)c1cccc2nonc12)NC1CCCCCC1 is higher in “hERG current change (%, negative = inhibition) at 10uM” value: -36.4% for the first, -2.03% for the second.

First: CCSc1nnc(-c2cc(Br)ccc2N)c(=O)[nH]1
Second: CCOC(=O)CN1C(=O)Nc2ccc(Br)cc2C1c1ccccc1 (stereo not shown)
The “hERG current change (%, negative = inhibition) at 10uM” value of the first is higher: 21.4% for the first, -56.7% for the second.

Compared with COC(=O)c1nn(-c2ccc(C)cc2)c2nnc(Cc3ccccc3)c(=O)n12, COC(=O)c1ccc(NC(=O)CSc2nnc(-c3ccncc3)n2C)cc1 is lower in “hERG current change (%, negative = inhibition) at 10uM” value: 9.19% for the first, -9.59% for the second.

Compared with CC1(C(=O)OCC(=O)c2c[nH]c3ccccc23)CC1(Cl)Cl (stereo not shown), COc1ccc(Cl)cc1C(=O)NNC(=O)CSc1nnc2ccccn12 is lower in “hERG current change (%, negative = inhibition) at 10uM” value: 22% for the first, 5.24% for the second.

Compared with CC1=NN(c2ccc(F)cc2)C(=O)C1C(c1cccc(O)c1)c1c(C)[nH]n(-c2ccc(F)cc2)c1=O (stereo not shown), Cl.OC(c1ccccc1)(c1ccc(F)cc1)C(c1ccccc1)N1CCOCC1 (stereo not shown) is higher in “hERG current change (%, negative = inhibition) at 10uM” value: 9.02% for the first, 16.8% for the second.

First: COCCn1nnnc1SCC(=O)N1CCCCC1
Second: CCN1CCN(C(=O)CCc2nc3ccccc3n2-c2ccccc2)CC1
The “hERG current change (%, negative = inhibition) at 10uM” value of the first is higher: 25.2% for the first, -23.3% for the second.

First: Cc1ccc2c(c1)C1CN(C)CCC1N2S(=O)(=O)c1ccc(Oc2ccc([N+](=O)[O-])cc2)cc1 (stereo not shown)
Second: CSCCC(NS(=O)(=O)c1ccc(C)cc1)C(=O)N1CCN(S(=O)(=O)c2ccc(F)cc2)CC1 (stereo not shown)
The “hERG current change (%, negative = inhibition) at 10uM” value of the first is higher: -21.3% for the first, -32.2% for the second.

First: CC(=O)c1ccc(NC(=O)C(C)Sc2n[nH]c(-c3cccnc3)n2)cc1 (stereo not shown)
Second: CC(C)N(Cc1ccccc1)C(=S)Nc1cccnc1
The “hERG current change (%, negative = inhibition) at 10uM” value of the first is lower: 15.5% for the first, 19.4% for the second.

First: CC(C)N1CCN(Cc2ccc(C#CC(C)(C)O)cc2)CC1CCO (stereo not shown)
Second: COCCN(C(=S)Nc1cccc(OC)c1)C1CCN(C(C)C)CC1
The “hERG current change (%, negative = inhibition) at 10uM” value of the first is higher: 13.4% for the first, -16.7% for the second.

First: COc1ccc(-c2c(C)sc(NC(=O)c3ccnn3C)c2C#N)cc1
Second: Cc1sc2ncnc(N3CCN(CCOc4ccc(Cl)cc4)CC3)c2c1C
The “hERG current change (%, negative = inhibition) at 10uM” value of the first is lower: -11% for the first, -9.02% for the second.

Compared with COc1ccc2ccc(=O)oc2c1CC(O)C(C)(C)O (stereo not shown), COc1ccc(-c2c(C)nn3c(N4CCOCC4)cc(C)nc23)cc1OC is higher in “hERG current change (%, negative = inhibition) at 10uM” value: 1.16% for the first, 6.87% for the second.

First: Nc1ccccc1OCCOCCOc1ccccc1N
Second: OC(Cc1nc2ccccc2[nH]1)c1ccccc1Cl (stereo not shown)
The “hERG current change (%, negative = inhibition) at 10uM” value of the first is higher: 8.54% for the first, -4% for the second.

Compared with NC(=O)CC(NC(=O)c1ccc(Br)cc1)c1ccc(N2CCN(c3ccccc3)CC2)c([N+](=O)[O-])c1 (stereo not shown), Cn1c(=O)c(C(=O)NNC(=O)c2ccc(Br)cc2)c(O)c2ccccc21 is higher in “hERG current change (%, negative = inhibition) at 10uM” value: -7.04% for the first, 12.2% for the second.

First: C=CCN1C[C@@H](C)N(C(c2ccc(C(=O)N(CC)CC)cc2)c2cccc(OC)c2)C[C@@H]1C (stereo partly shown)
Second: CCn1c(SCC(=O)N/N=C(\C)c2ccncc2)nnc1-c1ccc(C)cc1
The “hERG current change (%, negative = inhibition) at 10uM” value of the first is lower: -65.3% for the first, -20.6% for the second.

Compared with O=C(N/N=C/c1cc2c(cc1[N+](=O)[O-])OCO2)c1ccc2c(c1)OCO2, Cc1cc(C)c2oc(C(=O)NCCc3ccc(S(N)(=O)=O)cc3)cc(=O)c2c1 is lower in “hERG current change (%, negative = inhibition) at 10uM” value: 22.1% for the first, 19.3% for the second.

Compared with O=C(CN1CCN(c2ccc(O)cc2)CC1)N(C1CC1)C1CCS(=O)(=O)C1 (stereo not shown), O=C(NCC(c1ccco1)N1CCCC1)c1sc2ccccc2c1Cl (stereo not shown) is lower in “hERG current change (%, negative = inhibition) at 10uM” value: 12% for the first, -13.3% for the second.

Compared with Cc1cc(C(=O)NNC(=O)Nc2ccc(Cl)cc2)no1, CCCCNC(=O)c1onc(CSc2ccc(F)c(F)c2)c1C(=O)NCCCC is lower in “hERG current change (%, negative = inhibition) at 10uM” value: 14.3% for the first, -4.61% for the second.

First: CC(C)Cc1ccc(C(C)C(N)=NCCc2ccccc2)cc1.Cl (stereo not shown)
Second: S=C(NCc1ccc(Cl)cc1)NCc1ccccn1
The “hERG current change (%, negative = inhibition) at 10uM” value of the first is lower: -67.5% for the first, 8.36% for the second.

Compared with C=CCn1c(SCc2nnc(-c3ccccc3)o2)nnc1C(O)c1ccccc1 (stereo not shown), COc1ccc(C2CC(c3cc(OC)ccc3OC)n3nnnc3N2)cc1 (stereo not shown) is lower in “hERG current change (%, negative = inhibition) at 10uM” value: -1.3% for the first, -7.19% for the second.

Compared with CC(NO)C(C)(C)NO.Cl (stereo not shown), CSCCc1nc(SCC(=O)Nc2nnc(C)s2)[nH]c1C is higher in “hERG current change (%, negative = inhibition) at 10uM” value: 14.8% for the first, 16.4% for the second.

COc1cc(NS(=O)(=O)c2ccc(NS(=O)(=O)c3ccc(C)cc3)cc2)nc(OC)n1 was tested, and the “hERG current change (%, negative = inhibition) at 10uM” value was 25.4%.
